Values of other authors in publication PMC11006913.
Where a chain is given by its changes, count along the chain named. Some of the results follow.

Experiments:
Conditions in all cases: PBM; conditions not shown; double strand, one strand shown; scale: upbm affinity estimate (log intensity, higher = more binding, comparable within an allelic series)
[1] = biological target: ARX (Homo sapiens) (UniProt Q96QS3)
[2] = biological target: ARX L343Q (Homo sapiens) (UniProt Q96QS3)
[3] = biological target: ARX P353L (Homo sapiens) (UniProt Q96QS3)
[4] = biological target: ARX P353R (Homo sapiens) (UniProt Q96QS3)
[5] = biological target: ARX R332H (Homo sapiens) (UniProt Q96QS3)
[6] = biological target: ARX T333N (Homo sapiens) (UniProt Q96QS3)
[7] = biological target: T1, HESX1 E149K (Homo sapiens) (UniProt Q9UBX0)
T1 sequence: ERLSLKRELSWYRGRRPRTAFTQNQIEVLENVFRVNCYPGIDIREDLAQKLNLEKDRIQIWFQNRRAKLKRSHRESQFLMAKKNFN

[8] = biological target: T2, HESX1 N125S (Homo sapiens) (UniProt Q9UBX0)
T2 sequence: T1 sequence with N31S, K55E

[9] = biological target: T3, HESX1 R160C (Homo sapiens) (UniProt Q9UBX0)
T3 sequence: T1 sequence with K55E, R66C

[10] = biological target: ISX (Homo sapiens) (UniProt Q2M1V0)
[11] = biological target: ISX R83Q (Homo sapiens) (UniProt Q2M1V0)
[12] = biological target: PROP1 R112Q (Homo sapiens) (UniProt O75360)
[13] = biological target: PROP1 R99Q (Homo sapiens) (UniProt O75360)

Row | Sequence | binding signal [1] | binding signal [2] | binding signal [3] | binding signal [4] | binding signal [5] | binding signal [6] | binding signal [7] | binding signal [8] | binding signal [9] | binding signal [10] | binding signal [11] | binding signal [12] | binding signal [13]
1 | GTAATTAA [8-mer GTAATTAA] | 13.2 | 11 | 12.7 | 10.8 | 11.1 | 12.3 | 11.8 | 13.2 | 10.4 | 15.4 | 14.8 | 12.9 | 12.3
2 | GCAATTAA [8-mer GCAATTAA] | 12.7 | 10.8 | 12.3 | 10.7 | 10.9 | 12 | 11.6 | 12.1 | 10.2 | 15.2 | 14.6 | 12.8 | 12.2
3 | AATTAGTA [8-mer AATTAGTA] | 12.8 | 10.8 | 12.3 | 10.8 | 11 | 12 | 11.4 | 11.4 | 10.4 | 14.6 | 13.5 | 12.6 | 12.2
4 | AATTAAGC [8-mer AATTAAGC] | 12.7 | 10.8 | 12.3 | 10.7 | 10.9 | 11.9 | 11.3 | 11 | 10.2 | 14.8 | 13.6 | 12.7 | 12.2
5 | CCAATTAG [8-mer CCAATTAG] | 13.2 | 11 | 13 | 10.8 | 11 | 12.4 | 12 | 13.3 | 10.4 | 15.5 | 15.1 | 12.9 | 12.6
6 | TAATTGAA [8-mer TAATTGAA] | 12.8 | 10.7 | 12.4 | 10.6 | 10.9 | 11.9 | 11.6 | 12.4 | 10.1 | 15.1 | 14.1 | 12.7 | 12.1
7 | TCAATTAA [8-mer TCAATTAA] | 12.9 | 10.8 | 12.6 | 10.7 | 11 | 12.1 | 11.8 | 13.1 | 10.2 | 15.5 | 14.9 | 12.8 | 12.2
8 | GCTAATTA [8-mer GCTAATTA] | 13.5 | 11 | 13.3 | 10.8 | 11.2 | 12.6 | 12.2 | 13.7 | 10.3 | 15.6 | 15.3 | 13 | 12.6
9 | CAAATTAG [8-mer CAAATTAG] | 12.8 | 10.7 | 12.3 | 10.6 | 10.8 | 11.8 | 11.2 | 11.1 | 10.2 | 14.6 | 13 | 12.6 | 12
10 | ACTAATTA [8-mer ACTAATTA] | 13.4 | 11.1 | 13.1 | 11 | 11.2 | 12.6 | 12.1 | 13.8 | 10.4 | 15.5 | 15.3 | 12.9 | 12.5
